Experimental data as given in ChEMBL document CHEMBL4888484, “Replenishing the malaria drug discovery pipeline: Screening and hit evaluation of the MMV Hit Generation Library 1 (HGL1) against asexual blood stage Plasmodium falciparum ,using a nano luciferase reporter read-out” (2022).
The whole screen tested about 150,000 compounds, of which about 540 (0.36%) showed an effect of 50% or more. The list shows a part of the results.

What follows are molecules tested on Plasmodium falciparum (assay: Primary screen in NF54 nanoGlo assay, in single point, at 2uM, 72h; a lower Z score goes with more inhibition). Conditions: timepoint 72 hour.
Format: functional, Erythrocyte

SMILES	% Inhibition [%]	Z score
Cc1ccsc1C(=O)Nc1ccc2c(c1)OCCO2	-8	0.95
CC(NC(=O)C1Cc2ccccc2O1)C1(N2CCOCC2)CCCC1 (configuration not stated)	-20	1.77
CCN1CCCC[C@@H]1CNCc1[nH]c2ccccc2c1Cl	-12	1.16
FC(F)(F)c1cnc(-c2csc(NC3CCCCC3)n2)c(Cl)c1	41	-5.29
COc1cccc(C(=O)N(Cc2ccc(-c3cccc(C(F)(F)F)c3)o2)[C@H]2CCS(=O)(=O)C2)c1	-13	1.64
CN(CCCNC(=O)[C@@H](c1cccc(F)c1)N1CCOCC1)c1ccccc1	14	-1.88
COc1cc(C(=O)N2CCN(c3ccccc3)CC2)cc2occc12	32	-0.6
O=C(Nc1nc(C(=O)Nc2cccc3nsnc23)co1)c1ccsc1	7	-0.99
O=C(Cn1nnc(C2CC2)n1)C1CCOCC1	-7	1.03
COc1ccc(OCc2nc(C(=O)N[C@H]3CC[C@H](O)CC3)co2)cc1	-11	1.82
Cc1sc(C(=O)N2CCOCC2)c(NC(=O)c2ccccc2)c1C	-34	4.02
COC[C@@H]1CN(S(=O)(=O)Cc2ccccc2)C[C@H]1C(N)=O	3	-0.39
O=C(c1ccccc1F)N1CCC[C@H](OCc2ccc(F)c(F)c2)C1	-7	1.05
O=C(O)c1c(S(=O)(=O)N[C@H]2C[C@@H]3CC[C@H]2C3)sc2c1CCNC2	-8	1.78
O=C(CC1(CC(=O)NC2CC2)CCCCC1)Nc1nccs1	-14	2.17
Cc1nnsc1CN1CC[C@H](NC(=O)c2ccccc2)[C@@H](O)C1	-6	1.08
CNC1CCN(C(C)CCc2ccc3c(c2)OCO3)C1 (configuration not stated)	-5	0.74
Cn1ncnc1CCNC(=O)c1ccc(-c2ccc3c(c2)OCC3)cc1	-16	2.76
Fc1cccc(OCCN2CCC[C@H](C3OCCO3)C2)c1	-3	0.27
CC(=O)N1CCC(CC(=O)NC(C)C)(N2Cc3ccccc3C2=O)CC1	-4	0.58
CS(=O)(=O)c1ccc(S(=O)(=O)N2CC[C@H]2c2ccccc2)cc1	-12	1.2
Cc1ccnc(NS(=O)(=O)c2ccc(Nc3cc(-c4ccccc4)nc(C)n3)cc2)n1	2	-0.27

SMILES	% Inhibition [%]	Z score
Cc1cccc(OC2CN([C@@H](C)CCN(C)C)C2)c1	-19	2.04
N#Cc1c(-c2cccnc2)cc(-c2c[nH]c3ccccc23)nc1N	3	-0.41
CC(C)NCc1ccccc1Br	2	-0.26
Cn1nc(C(F)(F)F)cc1NC(=O)NC12CC1COC2(C)C (configuration not stated)	6	-0.93
COc1cccc(C2=NS(=O)(=O)N(C)C(C(=O)N3CCC(C(N)=O)CC3)=C2)c1	22	-3.71
CN(C(=O)c1ccnn1CC(F)(F)F)C(C)(C)CN1CCCC1	-8	1.04
CCCCNC(=O)NCC1([C@@H](O)C(C)C)CC1	-16	1.4
CC(C)(C(=O)N1CCC(C(=O)O)CC1)c1ccc2c(c1)OCCO2	0	-0.01
COc1cc(OC)c2ncnc(-n3ccnc3)c2c1	5	-0.62
Cc1cc(C)nc(NC(=O)N2CCC[C@@H]2CO)c1	-7	0.83
CN(Cc1noc2c1CCCC2)S(=O)(=O)c1cccs1	-8	1.26
Cc1nc(-c2ccncc2)nc(N2CC(O)C(O)C2)c1C (configuration not stated)	-3	0.48
CCC1(CC)NC(=O)N(CC(=O)N2CCN(S(=O)(=O)c3ccc(C)cc3)CC2)C1=O	-13	2.07
O=c1ccc(F)cn1CCc1ccc2c(c1)CCO2	-12	1.72
O=C1C2CC=CCC2C(=O)N1Cc1ccn(-c2ccc(F)cc2F)n1 (configuration not stated)	-6	0.78
COc1ccccc1N(CN1CCCC1=O)C(=O)c1cccc(Cl)c1	0	0.07
Cc1nc(NC(=O)c2cc(Cl)c3c(c2)OCCCO3)sc1C	-15	2.74
Cc1nnc(CS(=O)(=O)Cc2c(Cl)cccc2Cl)o1	-40	4.75
Cc1cc(C)n2ncc(-c3noc(C4CN(C5CCCCC5)C4)n3)c2n1	-6	1.22
CCOC(=O)CN(CC(=O)N1CCCCC1CC)C(C)c1ccccc1 (configuration not stated)	-16	1.79
Cc1nnc(CC(=O)N(C)C2CCOC(c3ccc(F)cc3)C2)o1 (configuration not stated)	-6	1
Cc1nn(C)c(Cl)c1[C@H]1CC(=O)Nc2c1cnn2Cc1cccnc1	4	-0.88

SMILES	% Inhibition [%]	Z score
O=C1CNc2ccc(C(=O)NCCCc3cccnc3)cc2N1	6	-0.58
COCCc1nsc(Oc2ccc(F)c(C(F)(F)F)c2)n1	-11	1.48
COc1ccc(-c2nccn3cc(C(=O)N4CCN(c5ncccn5)CC4)nc23)cc1	1	-0.24
Cn1ccc(C(=O)Nc2cccnc2)cc1=O	-37	4.35
Cc1ccc(CNCc2cc(C3CCNCC3)no2)s1	0	0.03
O=C(CC1CCCC1)NCCCOCC(F)(F)F	-11	1.43
CC(C)(C)OC(=O)N1CC2(C[C@H](NC(=O)Nc3cccnc3)CO2)C1	12	-1.51
O=C(CCN1C[C@H]2CC=CC[C@H]2C1)NCc1ccc(F)cc1	-14	2.35
Cc1occc1C(=O)NC[C@@H](CO)Cc1ccc(F)c(F)c1	-1	0.24
Cn1c(N2CCOC3(CCCC3)C2)nnc1[C@]1(C)CCCO1	-4	0.51
Nc1c2c(-c3ccccc3)nc(NCCN3CCCC3)nc2nn1-c1ccc(C(F)(F)F)cc1	-5	0.88
Cc1ccc(Cc2ccccc2C(=O)N2C[C@@H]3[C@H](C2)[C@H]3C(=O)O)cc1F	-8	1.41
CN1CCC(NC(=O)Cn2c(COc3ccccc3)nc3ccccc32)CC1	-3	0.27
CC1(CNC(=O)c2ccccc2NC(=O)C(C)(C)C)CN(Cc2ccccc2)C1	-8	1.3
C[C@H]1CN(c2ccccc2)CCN1C(=O)c1cnc(O)cn1	-3	0.5
O=C1C2C(C(=O)N1c1ccc(Cl)c(Cl)c1)C1(O[C@H]2c2ccc(Br)cc2)C(=O)c2ccccc2C1=O (some centres not stated)	-7	0.86
COc1cc(-c2nccn2-c2ccc(C)nc2)cc(OC)c1OC	-1	0.15
CN1CC[C@H](NS(=O)(=O)NCc2ccccc2)[C@H](Cc2ccccc2)C1	-8	1.39
CC(C)Cn1ccnc1NCc1cnnn1C	1	-0.08
Cc1nn(C)c2c(=O)n(CC(=O)NCc3ccc(Br)cc3)ccc12	-13	1.28
O=c1c(Cl)c(NCCO)ncn1-c1ccccc1	-2	0.2
C[C@H](NC(N)=O)C(=O)N1CCCCCC1c1ncon1 (some centres not stated)	29	-3.73

SMILES	% Inhibition [%]	Z score
CN(Cc1ccncc1)C(=O)c1cccnc1	-14	2.05
Cc1cnc(NC(=O)[C@@H]2CNC(=O)N2)s1	-5	0.83
CCC[C@@H](C(=O)NCCN1CCOCC1)n1c(Cc2ccc(Cl)cc2Cl)nc2ccccc21	-7	1.01
Cc1nc(C)c(COc2nc(C(C)(C)C)no2)s1	-7	1.04
O=C(Cn1c(=O)cnc2ccccc21)N1CCCN(c2ccc(Cl)c(Cl)c2)CC1	-5	0.47
COC1(C)CC(N(C)C(=O)NCc2cnc(C)s2)C1(C)C (configuration not stated)	-3	0.49
Cc1ccc(CS(=O)(=O)N2CC3(C[C@H](N4CCCCC4)CO3)C2)cc1	-9	1.4
COc1cc(CN2C[C@H]3C[C@H](O)[C@@H](O)C[C@H]3C2)ccc1OCC=C(C)C	-18	2.06
Cc1[nH]c2c(c1C(=O)NCCc1nc3ccccc3o1)C(=O)CCC2	-25	4.62
COc1nccc(N(C)C)c1NC(=O)c1cnc(C(C)C)s1	-9	0.72
Clc1cnc(NCCCOC2CCCC2)nc1	-3	0.48
CC(C)CCN1CC(O)=C(c2nc(-c3ccccc3)cs2)C1=N	2	-0.25
O=C(COc1ccccc1)NCC(=O)Nc1cccc2ccccc12	6	-1.09
CCOc1ccccc1NC(=O)C(=O)NCC1CCCCC1	-10	2.02
O=C1[C@@H](NS(=O)(=O)c2ccc3c(c2)OCCCO3)CCCN1CCO	-8	0.89
Cc1cnc(NCc2ccc3c(c2)OCCO3)cn1	0	0.09
O=C(NCc1ccnc2ccccc12)[C@H]1CC1(Cl)Cl	-10	1.13
O[C@H]1CN(c2ccc(C(F)(F)F)cn2)CC[C@@H]1Nc1ncccn1	-16	1.76
CCN(Cc1cnn(C)c1)c1cc(N2CCN(C)C(=O)C2)ncn1	-2	0.25
Cc1cccc(C)c1NC(=O)CN(CCOc1ccccc1Cl)CC(=O)Nc1c(C)cccc1C	-15	1.3
